# Laboratory results taken from the supplement of paper PMC11417369.
# Some of the results follow.
# System: PfHDP1 homeodomain (GST-tagged)
# Experiment: gcPBM binding intensity (ln(normalized median fluorescence intensity)); higher = stronger DNA binding
# How it was run: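 Plasmodium falciparum DNA-binding domains carrying a GST tag were expressed in E. coli and applied for 1 h, at about 25 μg on average, to an Agilent 4 × 180k array. The array held primer-extended double-stranded 36-bp intergenic genomic probes together with negative controls, and binding took place in 1× PBS with 1% milk, 0.2 mg/ml BSA, 0.5% salmon testes DNA and 0.03% Triton X-100. An Alexa488 anti-GST antibody detected bound protein, and the array was scanned at 488 nm. Binding intensity is taken as the highest Masliner-normalised natural-log median intensity across replicate spots of either probe orientation.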
row,Sequence,gcPBM binding intensity (ln)
1,GTAAATATGTTTATTAGTACACATATGAAAATAAAT [XGTACX_site5820],6.42
2,GTTGTTTCTATAAATTGTACTTAAATATAATTATAT [XGTACX_site585],7
3,ATATATTGTATGTGCTCACACATGTTTCGATATTAT [CACACA_site4336],7.39
4,TTTTTTTTTTTTTGGGGTACATTTTAATTAATATTA [XGTACX_site4866],6.51
5,TAAAATATAATTAGCACACATATATAAAATATATAT [CACACA_site4093],7.35
6,GTTCAAAATATGAACACACACATATATATATATATA [CACACA_site2057],9.26
7,ATCTACATATATTATTGTACATTGTTAAAAATTTAT [XGTACX_site7769],6.49
8,TTTCGTAATATGCGTGTGCACAATGAGTCCATATCT,10.9
9,TTTTTTCATAAATAATGTACATATATATATATATAT [XGTACX_site3620],9.21
10,TCTTGTAGATATATTTGTACATATATTTATGGGTAT [XGTACX_site1139],6.82
11,CTAGACTTTTTACAATGTACATATTTATGTATTATT [XGTACX_site1833],6.4
12,AAAAAATATATATTAACACACACACTAATAAAAAAA [CACACA_site8366],7.03
13,AAAATTTTTTACTTTACACACATTTTGTATATTTTG [CACACA_site1730],6.9
14,ATATTATTTATAAGTTGTACGGTATAATATAATATA [XGTACX_site5371],6.48
15,TATTTAATGCAAAAACGTACATAAATAACATTCACA [XGTACX_site5356],8.39
16,TATATATATATTAGTGGTACAAGATTTTTTTCTTTT [XGTACX_site4619],8.45
17,TATAAACACCCATATAAACACACATACATACATACA [CACACA_site8791],7.58
18,TCTTTTTTTTTACATACTTTTTTCCTTTTTTTTTTA [CACACA_negctrl_site1429],6.39
19,GGGAATATATTCAATTGTACATTCTTATTTTATCCA [XGTACX_site8480],6.65
20,ACGCACGAAATAAATACATGCATATTGTAAAAATTA [TGCATGCA_site310],8.99
21,TAAATAAATAAAAAAACACACATATATATATATATA [CACACA_site4029],9.32
22,ATCAAGCACCAACACACACACACACCCCCACCCACA [CACACA_site370],6.79
23,TTTTATCACATTATTGCACACACATAAAGAAAAAAA [CACACA_site8922],9.63
24,ATATATATATATAACTGTACTTATATATACATTTTA [XGTACX_site8605],9.25
25,ATATATATATATATATGTACATATATATATAATTTT [XGTACX_site4146],9.31
